From the supplement of paper PMC11417369
± gives the standard deviation of the averaged measurements. The list shows a part of the results.

Test system: PfAP2-I AP2 domain 3 (GST-tagged)
Test: gcPBM binding intensity (ln(normalized median fluorescence intensity)); higher = stronger DNA binding
Summary of the method: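 Binding intensity values are the highest Masliner-normalised natural-log median intensity among replicate spots of either probe orientation. The binding step lasted 1 h in 1× PBS with 1% milk, 0.2 mg/ml BSA, 0.5% salmon testes DNA and 0.03% Triton X-100, using GST-tagged P. falciparum DNA-binding domains expressed in E. coli on an Agilent 4 × 180k array of primer-extended double-stranded 36-bp intergenic genomic probes plus negative controls. Alexa488 anti-GST antibody and a 488 nm scan detected bound protein.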

| Sequence | gcPBM binding intensity (ln) |
| --- | --- |
| GTTATAAATAAATATACACACATATATAAAATACAT [CACACA_site7146] | 7.68 ± 0.58 |
| TATAACATAAAACACACACACATACATACACAAAAA [CACACA_site1804] | 8.04 ± 0.32 |
| CGCTTTATTTATATATGTACATATATATATATATAC [XGTACX_site5012] | 7.96 ± 0.42 |
| AAGGCAAACAGACACACACACATATATACCTATATA [CACACA_site7077] | 7.86 ± 0.62 |
| GTTGCCATCATTTGGCGTACAGTCAAAACCAAATCT [XGTACX_site1398] | 7.91 ± 0.45 |
| GTTATACACATTACATGTACAAAAGTTGCACTTCAT [XGTACX_site6023] | 8.79 ± 0.13 |
| ATTATAAGAAGGGGGGGTACATAAATATAAATGTAT [XGTACX_site5624] | 10.1 ± 0.23 |
| TTAATAATTAATTATAGTACACATTTATATTAATAA [XGTACX_site190] | 7.915 ± 0.064 |
| TTATTTAAAAAATTTTTAAATATACAAAAAAAAAAA [TGCATGCA_negctrl_site464] | 7.82 ± 0.86 |
| TTTAATTTTCGGTGTGCACACAACTATGAGTTTTTA [CACACA_site3034] | 9.565 ± 0.035 |
| TTTAAAAAAAAAAATACACACATAAAAATTTTCAAA [CACACA_site703] | 7.46 ± 0.54 |
| ATATAAATAAAATATACACACATAAATATAACGACA [CACACA_site1637] | 7.93 ± 0.59 |
| AACATTTCCTTTCTGTGTACATATAAACCCATCTAT [XGTACX_site2071] | 8.13 ± 0.64 |
| ACGAAGATTTATCTTGCACACGCAAAAAAAAAAAAA [CACACA_site7933] | 8.79 ± 0.47 |
| AAAAAAAAAAAAAAAGCATGCACATATTATTTTTTT [TGCATGCA_site416] | 8.62 ± 0.67 |
| ATTATATTTTGTAAATGTACATTTATATATTTTGTA [XGTACX_site1226] | 7.68 ± 0.57 |
| ATTCATAAACGTGTGTTAATATGAATTTAAACATAA [XGTACX_negctrl_site213] | 7.57 ± 0.58 |
| GTATAAAAAAATAAAAGTACAAAAAAAAAAGACTGA [XGTACX_site186] | 7.97 ± 0.52 |
| AAATAAAAAATATGAACACACATATATAACAAAATA [CACACA_site261] | 7.74 ± 0.81 |
| TTTTTTTTTTTTTTTTTTTTTTTTTTTTTTTTTTTT [CACACA_negctrl_site104] | 10.4 ± 0.21 |
| AGGATTAAAAAAACATGTACGTATTTAAATATATTT [XGTACX_site8774] | 7.96 ± 0.53 |
| TACTGGTATCGATATAGTACATATAATATTATGTTA [XGTACX_site7490] | 7.62 ± 0.49 |

| Sequence | gcPBM binding intensity (ln) |
| --- | --- |
| AATTGAATAAATTAAACATGCACAGATGTTCTATTT [TGCATGCA_site692] | 7.75 ± 0.67 |
| TTTGTGTTTATAAATTGTACAAAGGTGCAAGAAGAA [XGTACX_site2159] | 11.1 ± 0.87 |
| AAAAAAAAAAAAAACACACACACACCCATAAATATA [CACACA_site151] | 8.38 ± 0.47 |
| AGGATATATAAGTATACACACATATTTATATTTATA [CACACA_site6239] | 7.44 ± 0.55 |
| TTTTTTTTTTTTTTTTTTTTCACATGTGTGGAAAAA [GTGCAC_negctrl_site352] | 8.37 ± 0.94 |
| TTAAAATATACATAAACACACACAAAACGTTTAAGA [CACACA_site8267] | 7.83 ± 0.64 |
| AATTTAAAATATATAGTACACACGTGAACACAAATA [CACACA_site416] | 8.01 ± 0.3 |
| TAACAATAACTTTATACACACATAATATATATATAT [CACACA_site3543] | 9.05 ± 0.15 |
| TGTATTTATAATAAAACACACATTTTTAATGTGCTC [CACACA_site4908] | 7.4 ± 0.4 |
| TGTTGTCCTAATTCTACACACAATGGTTTATTAAAA [CACACA_site2648] | 8.12 ± 0.52 |
| CATATACTTCTGTGCACACGAATATTTTTCTTCTTC [CACACA_site1407] | 10.3 ± 0.3 |
| TTTTAACGTAAAACATTGATGATATAAAAAATAGGA [GTGCAC_negctrl_site540] | 7.92 ± 0.46 |
| TATACTCATATTTTTACACACATATTTTTTCATATA [CACACA_site5412] | 7.88 ± 0.45 |
| ATCCACTTTTTGAAGACACACACAAAAAAAAAAAAA [CACACA_site8818] | 8.04 ± 0.4 |
| AATTAGATGGATAAATGTACATAATGTGAATATATT [XGTACX_site86] | 8.09 ± 0.74 |
| TAAAAATAATTTGCATGTACATAGGTCGATGTATTT [XGTACX_site1357] | 7.88 ± 0.48 |
| TGTAAATTATAACGTGCACACATATTTAAAATGAAA [CACACA_site8915] | 11.2 ± 0.15 |
| AGATATTTATTGAGTGCATGTTATAAAGGGAAAAAA [TGCATGCA_site88] | 9.04 ± 0.17 |
| ATATAGAAAATGCATACACACTTTATAAATATATTT [CACACA_site6553] | 7.92 ± 0.53 |
| TATTTTTATTATATGGTGCATATATACATACATATA | 10.7 ± 0.79 |
| TTCAAGCCCTTCTGCTTACACACAGTAATTATTGTG [CACACA_site2952] | 7.74 ± 0.66 |
| AAGTGCATATTATTCACACATAATAATTGTATACCT [CACACA_site5965] | 10.3 ± 0.47 |
